# Measured values taken from the supplement of paper PMC8728848.
# The list shows a part of the results.
# Legend:
# Experiment in all cases: glycan array binding signal (z-score within array); higher = stronger binding
# Conditions in all cases: glycan notation: IUPAC condensed, linker removed
# [1] = biological target: Fuc(a1-2)[Gal(a1-3)]Gal(b1-3)GlcNAc(b1-3)GalNAc
# In short: (§1)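 The binding signal is a Z-score computed within each array. Data were drawn from 3228 arrays in the Consortium for Functional Glycomics database, restricted to those with a known protein sequence. Scores were averaged over arrays of the same protein sequence at different concentrations or buffers, and over linkers, and negative values can be taken as non-binding.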
# [2] = biological target: Fuc(a1-2)[Gal(a1-3)]Gal(b1-3)GlcNAc(b1-6)GalNAc
# In short: as §1
# [3] = biological target: Fuc(a1-2)[Gal(a1-3)]Gal(b1-4)Glc
# In short: as §1
# [4] = biological target: Fuc(a1-2)[Gal(a1-3)]Gal(b1-4)GlcNAc
# In short: as §1
# [5] = biological target: Fuc(a1-2)[Gal(a1-3)]Gal(b1-4)GlcNAc(b1-2)Man
# In short: as §1
# [6] = biological target: Fuc(a1-2)[Gal(a1-3)]Gal(b1-4)GlcNAc(b1-2)Man(a1-3)[Fuc(a1-2)[Gal(a1-3)]Gal(b1-4)GlcNAc(b1-2)Man(a1-6)]Man(b1-4)GlcNAc(b1-4)GlcNAc
# In short: as §1
# [7] = biological target: Fuc(a1-2)[Gal(a1-3)]Gal(b1-4)GlcNAc(b1-2)Man(a1-3)[Fuc(a1-2)[Gal(a1-3)]Gal(b1-4)GlcNAc(b1-2)Man(a1-6)]Man(b1-4)GlcNAc(b1-4)[Fuc(a1-6)]GlcNAc
# In short: as §1
# [8] = biological target: Fuc(a1-2)[Gal(a1-3)]Gal(b1-4)GlcNAc(b1-3)GalNAc
# In short: as §1
# [9] = biological target: Fuc(a1-2)[Gal(a1-3)]Gal(b1-4)GlcNAc(b1-3)[Fuc(a1-2)[Gal(a1-3)]Gal(b1-4)GlcNAc(b1-6)]GalNAc
# In short: as §1
# [10] = biological target: Fuc(a1-2)[Gal(a1-3)]Gal(b1-4)GlcNAc(b1-6)GalNAc
# In short: as §1
# [11] = biological target: Fuc(a1-2)[Gal(a1-3)]Gal(b1-4)[Fuc(a1-3)]Glc
# In short: as §1
# [12] = biological target: Fuc(a1-2)[Gal(a1-3)]Gal(b1-4)[Fuc(a1-3)]GlcNAc
# In short: as §1
# [13] = biological target: Fuc(a1-2)[Gal(a1-3)]Gal(b1-4)[Fuc(a1-3)]GlcNAc(b1-3)GalNAc
# In short: as §1
# [14] = biological target: Fuc(a1-2)[Gal(a1-4)]Gal(b1-4)GalNAc
# In short: as §1
# [15] = biological target: Fuc(a1-2)[Gal(a1-4)]Gal(b1-4)GlcNAc
# In short: as §1
# [16] = biological target: Fuc(a1-2)[GalNAc(a1-3)]Gal
# In short: as §1
# [17] = biological target: Fuc(a1-2)[GalNAc(a1-3)]Gal(b1-3)GalNAc(a1-3)[Fuc(a1-2)]Gal(b1-4)GlcNAc
# In short: as §1
# [18] = biological target: Fuc(a1-2)[GalNAc(a1-3)]Gal(b1-3)GalNAc(b1-3)Gal(a1-4)Gal(b1-4)Glc
# In short: as §1
# [19] = biological target: Fuc(a1-2)[GalNAc(a1-3)]Gal(b1-3)GlcNAc
# In short: as §1
# [20] = biological target: Fuc(a1-2)[GalNAc(a1-3)]Gal(b1-3)GlcNAc(b1-2)Man(a1-3)[Fuc(a1-2)[GalNAc(a1-3)]Gal(b1-3)GlcNAc(b1-2)Man(a1-6)]Man(b1-4)GlcNAc(b1-4)GlcNAc
# In short: as §1
# [21] = biological target: Fuc(a1-2)[GalNAc(a1-3)]Gal(b1-3)GlcNAc(b1-2)Man(a1-3)[Fuc(a1-2)[GalNAc(a1-3)]Gal(b1-3)GlcNAc(b1-2)Man(a1-6)]Man(b1-4)GlcNAc(b1-4)[Fuc(a1-6)]GlcNAc
# In short: as §1
# [22] = biological target: Fuc(a1-2)[GalNAc(a1-3)]Gal(b1-3)GlcNAc(b1-3)GalNAc
# In short: as §1
# [23] = biological target: Fuc(a1-2)[GalNAc(a1-3)]Gal(b1-3)GlcNAc(b1-6)GalNAc
# In short: as §1
# [24] = biological target: Fuc(a1-2)[GalNAc(a1-3)]Gal(b1-4)Glc
# In short: as §1
# [25] = biological target: Fuc(a1-2)[GalNAc(a1-3)]Gal(b1-4)GlcNAc
# In short: as §1
# [26] = biological target: Fuc(a1-2)[GalNAc(a1-3)]Gal(b1-4)GlcNAc(b1-2)Man
# In short: as §1
# [27] = biological target: Fuc(a1-2)[GalNAc(a1-3)]Gal(b1-4)GlcNAc(b1-2)Man(a1-3)[Fuc(a1-2)[GalNAc(a1-3)]Gal(b1-4)GlcNAc(b1-2)Man(a1-6)]Man(b1-4)GlcNAc(b1-4)GlcNAc
# In short: as §1
# [28] = biological target: Fuc(a1-2)[GalNAc(a1-3)]Gal(b1-4)GlcNAc(b1-2)Man(a1-3)[Fuc(a1-2)[GalNAc(a1-3)]Gal(b1-4)GlcNAc(b1-2)Man(a1-6)]Man(b1-4)GlcNAc(b1-4)[Fuc(a1-6)]GlcNAc
# In short: as §1
# [29] = biological target: Fuc(a1-2)[GalNAc(a1-3)]Gal(b1-4)GlcNAc(b1-3)Gal(b1-4)GlcNAc
# In short: as §1
# [30] = biological target: Fuc(a1-2)[GalNAc(a1-3)]Gal(b1-4)GlcNAc(b1-3)Gal(b1-4)GlcNAc(b1-3)Gal(b1-4)GlcNAc
# In short: as §1
# [31] = biological target: Fuc(a1-2)[GalNAc(a1-3)]Gal(b1-4)GlcNAc(b1-3)GalNAc
# In short: as §1
# [32] = biological target: Fuc(a1-2)[GalNAc(a1-3)]Gal(b1-4)GlcNAc(b1-3)[Fuc(a1-2)[GalNAc(a1-3)]Gal(b1-4)GlcNAc(b1-6)]GalNAc
# In short: as §1
# [33] = biological target: Fuc(a1-2)[GalNAc(a1-3)]Gal(b1-4)GlcNAc(b1-6)GalNAc
# In short: as §1
# [34] = biological target: Fuc(a1-2)[GalNAc(a1-3)]Gal(b1-4)[Fuc(a1-3)]GlcNAc
# In short: as §1
# [35] = biological target: Fuc(a1-2)[GalNAc(a1-3)]Gal(b1-4)[Fuc(a1-3)]GlcNAc(b1-3)GalNAc
# In short: as §1
# [36] = biological target: Fuc(a1-2)[GalNAc(a1-4)]Gal(b1-4)GlcNAc
# In short: as §1
# [37] = biological target: Fuc(a1-2)[GalNAc(b1-3)]Gal
# In short: as §1
# [38] = biological target: Fuc(a1-3)GlcNAc
# In short: as §1
# [39] = biological target: Fuc(a1-3)[Gal(b1-4)]Glc6S
# In short: as §1
# [40] = biological target: Fuc(a1-3)[Gal(b1-4)]GlcNAc
# In short: as §1
# [41] = biological target: Fuc(a1-3)[Gal(b1-4)]GlcNAc(b1-2)Man
# In short: as §1
# [42] = biological target: Fuc(a1-3)[Gal(b1-4)]GlcNAc(b1-2)Man(a1-3)[Fuc(a1-3)[Gal(b1-4)]GlcNAc(b1-2)Man(a1-6)]Man(b1-4)GlcNAc(b1-4)GlcNAc
# In short: as §1
# [43] = biological target: Fuc(a1-3)[Gal(b1-4)]GlcNAc(b1-2)Man(a1-3)[Fuc(a1-3)[Gal(b1-4)]GlcNAc(b1-2)Man(a1-6)]Man(b1-4)GlcNAc(b1-4)[Fuc(a1-6)]GlcNAc
# In short: as §1
# [44] = biological target: Fuc(a1-3)[Gal(b1-4)]GlcNAc(b1-3)Gal(b1-3)[Fuc(a1-4)]GlcNAc
# In short: as §1
# [45] = biological target: Fuc(a1-3)[Gal(b1-4)]GlcNAc(b1-3)Gal(b1-4)[Fuc(a1-3)]GlcNAc
# In short: as §1
binder,measurement,setting,value
Epa15 (Candida glabrata) (protein) MGSSHHHHHHSSGLVPRGSHMASDPTTFPLGCSPEFTKTKKGLSMELYRYDYLPPGSYPCWDSAYLNPSYPRTGYKAKKLIATVDGVSGDINFKFNPKFGCKAIPDYLPSNFNYHEPITITNFTMILYGYFMPKTTAFHTFYVTADDLLFMNFGAGNAFDCCRREETADKFGNYAAYSVWGKKSLKNELTVYLHTGVYYPIRLFYNNRDYIAQLDIRFKTEHSNAIITNFTDYFYSVDDSSLGCPGLI,glycan array binding signal (z-score),[1],-0.421
same,glycan array binding signal (z-score),[2],-0.071
same,glycan array binding signal (z-score),[3],-0.292
same,glycan array binding signal (z-score),[4],-0.351
same,glycan array binding signal (z-score),[5],-0.424
same,glycan array binding signal (z-score),[6],1.24
same,glycan array binding signal (z-score),[7],0.144
same,glycan array binding signal (z-score),[8],-0.309
same,glycan array binding signal (z-score),[9],0.365
same,glycan array binding signal (z-score),[10],-0.436
same,glycan array binding signal (z-score),[11],-0.136
same,glycan array binding signal (z-score),[12],0.145
same,glycan array binding signal (z-score),[13],1.09
same,glycan array binding signal (z-score),[14],0.138
same,glycan array binding signal (z-score),[15],0.84
same,glycan array binding signal (z-score),[16],-0.197
same,glycan array binding signal (z-score),[17],-0.31
same,glycan array binding signal (z-score),[18],-0.474
same,glycan array binding signal (z-score),[19],-0.374
same,glycan array binding signal (z-score),[20],-0.478
same,glycan array binding signal (z-score),[21],-0.063
same,glycan array binding signal (z-score),[22],0.215
same,glycan array binding signal (z-score),[23],-0.175
same,glycan array binding signal (z-score),[24],-0.088
same,glycan array binding signal (z-score),[25],-0.378
same,glycan array binding signal (z-score),[26],-0.623
same,glycan array binding signal (z-score),[27],0.653
same,glycan array binding signal (z-score),[28],-0.163
same,glycan array binding signal (z-score),[29],-0.618
same,glycan array binding signal (z-score),[30],1.84
same,glycan array binding signal (z-score),[31],-0.58
same,glycan array binding signal (z-score),[32],-0.069
same,glycan array binding signal (z-score),[33],-0.352
same,glycan array binding signal (z-score),[34],0.075
same,glycan array binding signal (z-score),[35],0.619
same,glycan array binding signal (z-score),[36],-0.222
same,glycan array binding signal (z-score),[37],-0.195
same,glycan array binding signal (z-score),[38],-0.507
same,glycan array binding signal (z-score),[39],1.16
same,glycan array binding signal (z-score),[40],-0.457
same,glycan array binding signal (z-score),[41],-0.477
same,glycan array binding signal (z-score),[42],-0.403
same,glycan array binding signal (z-score),[43],0.679
same,glycan array binding signal (z-score),[44],-0.416
same,glycan array binding signal (z-score),[45],-0.073
